Source: PMC3903633
Results are given in words; binding and its absence hold for the method and conditions named. Binding seen in cells or lysates may run through a third protein. Some results given as binding are weak or reduced against the parent protein; the word gives no strength. Sequences can lack the tags named with a protein.

Amino acid sequences for entries named in this document (tags omitted).
UniProt Q39057: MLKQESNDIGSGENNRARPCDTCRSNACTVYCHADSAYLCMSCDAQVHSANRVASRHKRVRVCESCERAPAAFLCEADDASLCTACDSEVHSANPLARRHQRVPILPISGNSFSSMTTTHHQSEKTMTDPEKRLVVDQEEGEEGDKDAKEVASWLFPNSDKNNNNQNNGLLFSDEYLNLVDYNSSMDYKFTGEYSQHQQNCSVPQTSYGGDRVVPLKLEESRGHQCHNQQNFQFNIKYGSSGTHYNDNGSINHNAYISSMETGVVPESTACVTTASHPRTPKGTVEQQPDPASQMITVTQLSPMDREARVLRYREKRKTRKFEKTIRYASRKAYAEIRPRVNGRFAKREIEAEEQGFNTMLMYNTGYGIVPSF
UniProt Q8LAZ7: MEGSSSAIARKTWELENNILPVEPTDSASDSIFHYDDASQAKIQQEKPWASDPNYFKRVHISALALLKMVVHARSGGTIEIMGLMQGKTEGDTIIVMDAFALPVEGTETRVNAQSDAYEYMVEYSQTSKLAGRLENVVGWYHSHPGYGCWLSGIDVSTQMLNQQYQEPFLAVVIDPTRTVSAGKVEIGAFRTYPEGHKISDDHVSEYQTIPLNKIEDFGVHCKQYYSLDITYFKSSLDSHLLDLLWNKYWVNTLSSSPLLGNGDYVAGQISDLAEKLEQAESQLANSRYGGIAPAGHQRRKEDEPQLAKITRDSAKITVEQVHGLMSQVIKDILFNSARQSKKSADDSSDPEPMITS
UniProt Q9SXZ2: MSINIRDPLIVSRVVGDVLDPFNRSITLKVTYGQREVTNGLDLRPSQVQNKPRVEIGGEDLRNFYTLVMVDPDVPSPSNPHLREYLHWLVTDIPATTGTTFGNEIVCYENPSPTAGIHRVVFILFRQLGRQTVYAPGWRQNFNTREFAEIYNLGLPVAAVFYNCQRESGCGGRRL

Biological target: T1, PCC1 fused to the C-terminal or the N-terminal half of YFP (Arabidopsis thaliana) (UniProt Q94C26)
T1 sequence: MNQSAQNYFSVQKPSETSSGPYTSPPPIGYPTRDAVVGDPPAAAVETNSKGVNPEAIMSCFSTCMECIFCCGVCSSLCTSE
Assay: split reporter; BiFC: pairs of proteins each fused to half of YFP (pYFC43, pYFN43), transient co-transformation of Nicotiana benthamiana leaves by agroinfiltration; confocal microscopy

binding | Substance
no binding | CONSTANS (CO) fused to half of YFP (from UniProt Q39057 1-373)
binds | CSN5A subunit of the COP9 signalosome fused to half of YFP (from UniProt Q8LAZ7 1-357)
no binding | FLOWERING LOCUS T (FT) fused to half of YFP (from UniProt Q9SXZ2 1-175)
